Laboratory results taken from PubChem BioAssay AID686971 (National Center for Advancing Translational Sciences (NCATS), 2013).
About 7,500 (2.1%) of roughly 360,000 compounds were called active. This list was built around the results that the source calls inconclusive (neither active nor inactive); the mix of calls is not that of the screen. The call rests on the fitted dose curve; in most records, active means well fitted cell-killing curve with a large enough effect; inconclusive means small, poorly fitted or top-dose-only effect, or effect the other way, or another doubt; inactive means no such curve, though single readings can be large or run the other way. Potencies of inconclusive entries are left out as doubtful fits.

Experiment: qHTS for induction of synthetic lethality in tumor cells producing 2HG: qHTS for the HT-1080-IDH1KD cell line;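 on activity, negative = toxicity: 0% = DMSO wells and -100% = cell-free medium wells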
Conditions: HT-1080 IDH1 knockdown viability, ATP luminescence, 48 h; activity, negative = toxicity: at 46.1 µM (top of the series) unless noted
Summary of the method: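 Knockdown cells (IDH1KD HT-1080) received compounds 2 h after plating at 750 cells/well and were kept 48 h at 37 °C in 5% FBS RPMI. A CellTiter-Glo luminescence read gave % activity for curve fitting.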
Potency means the concentration at half of the fitted maximal effect; tags describe the fitted curve by direction and shape.

| Compound | activity, negative = toxicity | Potency |
| --- | --- | --- |
| COC(=O)C1=CN(Cc2ccc(OC)c(OC)c2)C=C(C(=O)OC)C1c1ccc(O)cc1 | inactive: -11.9% | – |
| CCC(C(=O)O)N1C(=O)/C(=C/C(C)=C/c2ccccc2)SC1=S (stereo not drawn) | inactive: -12.9% | – |
| CCOC(=O)c1cnc2ccc(OCC)cc2c1N1CCN(c2ccccc2)CC1 | – | inconclusive [cytotoxic, single point] |
| CCOC(=O)C1=C(C)NC(=O)NC1c1ccc(-c2ccc(Cl)cc2)o1 (stereo not drawn) | – | inconclusive [cytotoxic, partial curve] |
| CCOC(=O)N1CCN(C(=O)C2COc3ccccc3O2)CC1 (stereo not drawn) | inactive: 15.2% | – |
| CCC(C)c1ccc(NC(=S)NC2CCN(Cc3ccccc3)CC2)cc1 (stereo not drawn) | – | inconclusive [cytotoxic, single point] |
| CCN(CC)C(=O)c1cccc(-c2csc(C(C)(O)c3cccc(F)c3)n2)c1 (stereo not drawn) | – | inconclusive [cytotoxic, single point] |
| c1ccc2c(c1)[nH]c1c(N3CCC4(CC3)OCCO4)ncnc12 | – | inconclusive [cytotoxic, full curve, poor fit] |
| COc1ccc(/C=C(\C#N)C(=O)NC(C)c2ccccc2)cc1O (stereo not drawn) | – | inconclusive [cytotoxic, single point] |
| O=C(c1cccc(Cl)c1)N1CCCC(c2ccc(Cl)cc2)=N1 | – | inconclusive [cytotoxic, single point] |
| O=C1C=CC(n2cc(F)c(=O)[nH]c2=O)O1 (stereo not drawn) | – | inconclusive [cytotoxic, partial curve] |
| CCCCCCNC(=O)CCCCCNS(=O)(=O)c1ccc(OC)cc1 | inactive: -2.1% | – |
| Cc1cc(/C=N/n2cnnc2)c(C)n1-c1ccc(OCc2ccc(F)cc2)cc1 | – | inconclusive [cytotoxic, partial curve, poor fit] |
| COc1ccc(NC(=O)CN(CC(=O)Nc2ccc(OC)cc2)C(C)(C)CO)cc1 | – | inconclusive [cytotoxic, partial curve] |
| Cc1cc2c(cc1C)N(C(=O)CCl)CCN2C(=O)CCl | – | inconclusive [cytotoxic, single point] |
| O=C(COc1ccc2ccccc2c1)Nc1ccc(S(=O)(=O)N2CCCCCC2)cc1 | – | inconclusive [cytotoxic, partial curve] |
| CCN(CC)CCN1C(=O)c2ccccc2NC1c1ccccc1F (stereo not drawn) | inconclusive: -27.2% [cytotoxic] | – |
| COc1ccc2c(c1)-c1c(sn(-c3ccccc3)c1=S)C(C)(C)N2 | – | inconclusive [cytotoxic, single point] |
| CN(C)c1ccc(NC(=O)CSc2nc(C3CC3)nc3ccccc23)cc1 | inactive: 0% | – |
| CCN(C[C@H]1N[C@@](Cc2ccccc2)(C(=O)OC)[C@H]2C(=O)N(Cc3ccccc3)C(=O)[C@@H]12)C(=O)Nc1ccc(Cl)cc1 | – | inconclusive [cytotoxic, single point] |
| COc1ccc(Nc2nc(NCc3cccs3)nc3ccsc23)cc1OC | – | inconclusive [cytotoxic, partial curve] |
| Cc1ccc(NC(=O)C2CC(=O)Nc3nncn32)cc1 (stereo not drawn) | inactive: -1.85% | – |
| C=C1C(C(=O)Nc2ccc(OCC)cc2)C1C(=O)Nc1ccc(OCC)cc1 (stereo not drawn) | – | inconclusive [cytotoxic, partial curve] |

| Compound | activity, negative = toxicity | Potency |
| --- | --- | --- |
| CCc1nc2ccc(C(=O)Nc3cc(-c4ccccc4)ccc3OC)cn2c1N(C)Cc1ccc(Cl)cc1 | – | inconclusive [cytotoxic, single point] |
| CCOC(=O)c1cnc2c(ccc3ccccc32)c1N | inactive: 16.7% | – |
| COc1ccc(NC(=O)c2c(C)noc2-c2snnc2C)cc1 | – | inconclusive [cytotoxic, single point] |
| N=c1n(CC(=O)c2ccc(Br)s2)c2ccccc2n1Cc1ccccc1 | inactive: -2.83% | – |
| CC(C)C(=O)NC(c1cccc([N+](=O)[O-])c1)c1c(O)ccc2ccccc12 (stereo not drawn) | inactive: -21.7% | – |
| COc1ccc(C2=CC(c3c(C)nn(-c4ccccc4)c3Cl)n3nnnc3N2)cc1OC (stereo not drawn) | – | inconclusive [cytotoxic, single point] |
| CCOC(=O)COc1ccc(S(=O)(=O)Nc2cccc(SC)c2)cc1 | – | inconclusive [cytotoxic, single point] |
| CCCCCCN[C@H]1CCC2C3CC=C4C[C@@H](O)CC[C@]4(C)C3CC[C@@]21C (stereo partly drawn) | inconclusive: -16.6% [cytotoxic] | – |
| CC(C)COc1cc(=O)[nH]c(SCC(C)C)n1 | – | inconclusive [cytotoxic, single point] |
| CCOC(=O)c1ccc(NC(=O)Nc2ccc(F)cc2)cc1 | – | inconclusive [cytotoxic, single point] |
| CCOc1cc(CNc2ccc(N3CCOCC3)cc2)cc(Br)c1OCC | – | inconclusive [cytotoxic, single point] |
| Cc1ccc(-n2[nH]c(C)c(C=NCc3ccncc3)c2=O)cc1 | – | inconclusive [cytotoxic, partial curve] |
| Cc1cc(Cl)c2oc(C(=O)N(C)CCCCN3CCOCC3)c(C)c2c1 | – | inconclusive [cytotoxic, single point] |
| Cc1cc(C)nc(OC(C(=O)O)C(OCCc2ccccc2)(c2ccc(F)cc2)c2ccc(F)cc2)n1 (stereo not drawn) | – | inconclusive [cytotoxic, single point] |
| CCOc1ccc(C(=O)C[n+]2ccc(C(=O)NCc3ccccc3)cc2)cc1 | inactive: -0.196% | – |
| CC(C)=C1C2CCC1C1C(=O)N(NC(=O)COc3ccc(C(C)(C)C)cc3)C(=O)C21 (stereo not drawn) | – | inconclusive [cytotoxic, single point] |
| COc1ccc(CN2CCN(C(=O)CN3C(=O)C4C5C=CC(C5)C4C3=O)CC2)c(OC)c1OC (stereo not drawn) | – | inconclusive [cytotoxic, single point] |
| Cn1nccc1-c1coc2c(C(=O)NCc3ccccc3)cccc12 | inactive: -13.6% | – |
| Cc1ccc(NC(=S)N/N=C/c2c(C)[nH]c3ccccc23)cc1 | – | inconclusive [cytotoxic, single point] |
| CCN(CC)S(=O)(=O)c1ccc(NC(=O)CSc2nnc3c(n2)[nH]c2ccccc23)cc1 | – | active: 22.4 µM |
| COc1ccc2c(c1)C(=O)N1[C@H]3c4cc(Cl)ccc4OC[C@@H]3[C@H](c3ccccc3)[C@]1(C)C(=O)N2 | – | active: 14.6 µM |
| FC(F)Oc1ccc(NC(=S)NNc2ccnc3cc(Cl)ccc23)cc1 | – | active: 20.6 µM |
| COc1ccc(NS(=O)(=O)c2cc(NC(=O)[C@@H](NC(=O)c3ccccc3)C(C)C)ccc2C)cc1 | – | inconclusive [cytotoxic, partial curve] |

| Compound | activity, negative = toxicity | Potency |
| --- | --- | --- |
| COc1ccc(-c2nnn(CC(=O)Nc3sc4c(c3C#N)CCCC4)n2)cc1 | inactive: 7.48% | – |
| Cc1ccc(S(=O)(=O)N2C[C@@H](C)[C@]3(C2)[C@H](O)[C@H](OC(=O)Nc2cccs2)C[C@H]2C(=O)N(c4ccccc4)C(=O)[C@H]23)cc1 | – | inconclusive [cytotoxic, single point] |
| Cc1nc(NCCCn2ccnc2)c2ccccc2n1 | inactive: 7.17% | – |
| COc1ccc(OC)c(NC(=O)c2cc3oc4ccccc4c3cc2O)c1 | – | inconclusive [cytotoxic, single point] |
| COc1ccc(NC(=S)N2CCN(C(c3ccccc3)c3ccccc3)CC2)c(OC)c1 | – | inconclusive [cytotoxic, full curve, poor fit] |
| CCOC(=O)C1(Cc2cccc(OC)c2)CCCN(C(=O)c2cc(C)[nH]n2)C1 (stereo not drawn) | – | inconclusive [rising, single point] |
| C[C@@H]1CN([C@@H](C)CO)C(=O)c2cccc(NS(=O)(=O)c3cccs3)c2O[C@H]1CN(C)Cc1ccc(C(F)(F)F)cc1 | inactive: -7.13% | – |
| CCOC(=O)c1c(NC(=S)N2CCCCC2)sc2c1CCN(C(=O)OCC)C2 | – | inconclusive [cytotoxic, single point] |
| Cc1nc2ccccc2c(=O)n1NC(=O)Cc1ccc([N+](=O)[O-])cc1 | inactive: 11.5% | – |
| Cc1[nH]c2ccccc2c1/C=C/C(=O)c1ccccc1 | – | inconclusive [cytotoxic, single point] |
| Cc1noc(C)c1COc1ccccc1C(=O)N(C)Cc1ccc(C(C)(C)C)cc1 | – | inconclusive [cytotoxic, single point] |
| CCOc1cc(S(=O)(=O)n2nc(C)cc2C)ccc1Br | inactive: -12.2% | – |
| c1ccc2c(c1)oc1c(-c3cccc4nccn34)cccc12 | – | inconclusive [cytotoxic, single point] |
| CCCCCCCCCCOC(=O)Cn1c(COc2ccccc2C)[n+](C)c2ccccc21 | – | active: 11.6 µM |
| COc1cc(C2=NOC(C(=O)Nc3ccc4c(c3)OCO4)C2)cc(OC)c1OC (stereo not drawn) | inactive: -16.3% | – |
| COc1cccc(/C=N/NC(=O)c2cccc([N+](=O)[O-])c2)c1OS(=O)(=O)c1ccccc1 | inactive: -14.3% | – |
| COc1ccc(C2C=C(c3ccccc3)Nc3nnnn32)cc1 (stereo not drawn) | inactive: -0.794% | – |
| CCc1noc(C)c1C(=O)Nc1nc(-c2ccc(Cl)cc2Cl)cs1 | inactive: 0.0745% | – |
| CC(SCc1ccccc1)C(=O)Nc1ccccc1F (stereo not drawn) | inactive: 4.39% | – |
| COc1ccccc1C(=O)Nc1ccc2c(c1)nc(CCNC(=O)c1ccco1)n2C | – | active: 4.61 µM |
| CC(=O)Oc1ccc(-c2ccc(C(=O)NCCc3ccc(S(N)(=O)=O)cc3)cc2)cc1 | – | inconclusive [cytotoxic, partial curve] |
| Cc1n[nH]c(C)c1S(=O)(=O)N1CCCC(C(=O)N2CCN(c3ccc(Cl)cc3)CC2)C1 (stereo not drawn) | – | inconclusive [cytotoxic, single point] |
